Some of the results follow.
The sequences below were run on PF3D7_0420300 AP2 domain 1 (GST-tagged) (assay: gcPBM binding intensity (ln(normalized median fluorescence intensity)); higher = stronger DNA binding).
Procedure, shortened: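 The binding buffer was 1× PBS containing 1% milk, 0.2 mg/ml BSA, 0.5% salmon testes DNA and 0.03% Triton X-100. In it, GST-tagged P. falciparum DNA-binding domains expressed in E. coli were applied for 1 h to an Agilent 4 × 180k array of primer-extended double-stranded 36-bp intergenic genomic probes plus negative controls. Binding intensity, read with Alexa488 anti-GST antibody and a 488 nm scan, is the highest Masliner-normalised natural-log median intensity across replicate spots of either probe orientation.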

Row | Sequence | gcPBM binding intensity (ln)
1 | AGAATGAAATAATATACACACAAAGGAAAAATGTAA [CACACA_site3911] | 9.98
2 | AAGGAGCCTATGAACACACACATGTACCTATATTAA [CACACA_site7838] | 9.62
3 | TCACATATTATCTTTACACACTATATATAAGTTTTA [CACACA_site2790] | 9.53
4 | TCATGTTTTACAAAAACACACAAATGAATATAAACC [CACACA_site1161] | 9.57
5 | TTAAGATAGCAAATATGTACACATTTGTAAAATAAA [XGTACX_site4837] | 9.25
6 | TGTACATAAATCTAATTATTATATGTGTATATATAT [CACACA_negctrl_site1582] | 9.16
7 | AGTACAGACATAGACACACACACACCCATAAAAAAA [CACACA_site1515] | 10.1
8 | CGTATGCAAGGAACCACACACACACCCATAAATGTA [CACACA_site749] | 9.91
9 | AAAAAATAGACATATACACACATATGTATTTATAAT [CACACA_site5225] | 9.66
10 | AATATAATAATAAAAACACACACGTTGATTGTATTA [CACACA_site2381] | 9.71
11 | TAAAAATTCAATTGCACACGCACATATTTTAATAAG [CACACA_site2014] | 9.21
12 | ATTTCATATAGTGTAGTGCAATTTTAAGCATCAAGG | 9.24
13 | CCTATAATAAATAATACACACATATTGTAAATATAT [CACACA_site7496] | 9.6
14 | ATGTCATTATATACATGTACGCATATCTGTTTATCC [XGTACX_site3947] | 9.38
15 | TTAAAAATAAAAAATACACACTCTAGTCCATGTAAC [CACACA_site3640] | 9.48
16 | TTTTTTTTTATAAGGTGTACGTAAAATGTGTAGGTC [XGTACX_site3585] | 9.27
17 | CACACTAAAAGACACACACACACACGCATATAAATA [CACACA_site7874] | 10.2
18 | AAATATATATATATATGTACACACACACATATAAAT [XGTACX_site847] | 10.1
19 | TTGTAGGAATTTATTTTGACTGATAATTAATACGTT [GTGCAC_negctrl_site46] | 9.13
20 | TAGTGTAAAAAATACGCATGTGTACAAATATAATAA [TGCATGCA_site498] | 9.47
21 | AATAATACGTTAAATGTTCTTACAAGTTGGTTTCAT [CACACA_negctrl_site1029] | 9.24
22 | TAAAGGTGTAAAACTGCATGCTGGAGAAAAGTAAAA [TGCATGCA_site591] | 9.36

Row | Sequence | gcPBM binding intensity (ln)
23 | AAAAAAAAATTTGTATCACACACGTATTATAAAAAA [CACACA_site6] | 9.25
24 | ATTATATAATATAATGCATGTGTTAATGAAAAATCT [TGCATGCA_site426] | 9.24
25 | AAAAAAAAAAAAAAGTGTACCTTATTATACTTTAAT [XGTACX_site8439] | 9.05
26 | ATAATTTTTATTTGTACACACATACAGATATATTAT [CACACA_site4701] | 9.55
27 | GATATGTACTAATACACACACATATATATATATATA [CACACA_site1022] | 9.81
28 | GATATAGATATTAATTGTACATATTATTTATTGTTA [XGTACX_site846] | 9.33
29 | TTCTAAAAAGGGTGTACACAAACGAATGGAAAATAA [CACACA_site5483] | 9.45
30 | TATATATATATAATATGTACATATATATATTCTTAA [XGTACX_site6154] | 9
31 | ATAATTCATGTTTAGTGTACAAAAAATTAAAGCAAC [XGTACX_site8891] | 9.48
32 | AAATAATTTATATGTAGTACATGTTGTAGATAATTT [XGTACX_site1031] | 9.31
33 | TGATTATATAAAAAAAAGAAAAAAAAAAAAAAAAAA [CACACA_negctrl_site819] | 8.77
34 | ATGCATCATTTATTTGCACACCTATTATATACTTTT [CACACA_site2097] | 9.59
35 | TTATGATAACTTTGCACACACTTAGGAAAAGTTATG [CACACA_site6836] | 9.39
36 | CAAAGCATTTTATCTACACACATATATAAATAAATA [CACACA_site7500] | 9.47
37 | ATCTTTATTTTTAGCGCACACATAAAATAATAATAA [CACACA_site3458] | 9.21
38 | TATTTTAACTTTTTTTCCTTTATTCATTTTTTTTTC [CACACA_negctrl_site971] | 9.37
39 | TTTTTTTTTTTATGTGCACACAAAAGATGCTTATAT [CACACA_site2347] | 9.3
40 | TGATGCAAGATATATACACACATATAAATATAAATA [CACACA_site7429] | 9.58
41 | TAAAGAGTCATGTGGTGTACCTGCTTCACCACATAT [XGTACX_site1288] | 9.03
42 | TATATATTCATAAAGTGTACATGTTTATATATATAT [XGTACX_site7585] | 9.2
43 | TTATTTTTAATATCGGTGCAACAAAAAGGAAAAGAT [GTGCAC_site9482] | 9.48
44 | TATGTATAGATATATACACACTTCTGTGATACGAAA [CACACA_site7003] | 9.26

Row | Sequence | gcPBM binding intensity (ln)
45 | ATATGTACATATCTCATGCACTTAACAAAAAAAAAG [GTGCAC_site9898] | 8.95
46 | TAATTTGTTAAAGGTTCACATATGGTATATACTTCT [XGTACX_negctrl_site292] | 9.41
47 | TAATAAGGTTACAACAAACACACAAAGGAATATACA [CACACA_site4089] | 9.91
48 | GATATGATTAACTTATGTTATTCTTGATGGTTTCTT [GTGCAC_negctrl_site411] | 9.49
49 | TATCACAAAATATACTGTACATACAGGCAGTAATAT [XGTACX_site2487] | 9.29
50 | TTATAAAACCATGTCATCAACATAGGCACAAAAATG [CACACA_negctrl_site1160] | 9.31
51 | AAGAATCACCAAATATGTACACACCTTAACATGTTT [XGTACX_site4272] | 9.54
52 | CCACTGTATGAATGCACACATTCATAGAATTGCTAT [CACACA_site2676] | 9.24
53 | CCATAGATATTTTATACACACATATAATATATTAAT [CACACA_site373] | 9.44
54 | GATGATTCAATTTATGCACACTAAAAATTAATTATA [CACACA_site4308] | 9.2
55 | ACCAAAAGGGGATGTAGTACAATATGATTAGAAGAA [XGTACX_site3773] | 9.33
56 | ATAATCTGACAAATGTGTACACATATATATATATAT [XGTACX_site2379] | 9.42
57 | AAATAATATATTCCTTGTACTTATTTCAATGAATTC [XGTACX_site7719] | 9.21
58 | AAAATACCCGGACACACACACATATATATATATATT [CACACA_site6137] | 9.96
59 | TAACTTCAAACAAAATATGGTAAAAGTGGTTGAAAA [CACACA_negctrl_site42] | 9.26
60 | ATACATATATAATTATGTACGTATATTTTATATAAC [XGTACX_site4292] | 9.33
61 | ATGAATAAAAAAGGTGGTACATATATATATATATAT [XGTACX_site7893] | 9.33
62 | TGTCTTGTAAATTATTGTACTATTTAAAGTATAAAA [XGTACX_site7863] | 8.87
63 | AAAATAATATAAATAATATAAGTGAGCATATATATA [TGCATGCA_negctrl_site527] | 9.39
64 | AATAAAATTTGCGATGCACACAGAATAGCTAATATG [CACACA_site8983] | 9.52
65 | TTATTTTACTTTTATGCAACTAAAAATATTGCTATA [XGTACX_negctrl_site277] | 9.18
66 | ATATTCAATTCATACACACACAATTTAAGAATGATA [CACACA_site3883] | 9.76

Row | Sequence | gcPBM binding intensity (ln)
67 | CATATAGATTTGTTCACACACACACTAAAAAAAAAA [CACACA_site7212] | 9.92
68 | ACAAATGTGAGAAAGACACACATATAATAAAAAACA [CACACA_site1156] | 9.55
69 | AAAAAAAAAATATTTGAACACACGAGGATATATAAA [CACACA_site139] | 9.52
70 | TATATTTAATTATTTTGTACTCATATAAAGATGATG [XGTACX_site5488] | 9.04
71 | TACAGACATACATACACACATACATACAGACATACA [CACACA_site1941] | 9.79
72 | TACATATTTACTATCACACACACGATATAAATAAAT [CACACA_site6701] | 9.92
73 | CATATATACCTATATACACACATATAGATTTATATA [CACACA_site6451] | 9.35
74 | TTATTCTACATATATGCATGTGTATGATCTGTTTAT [TGCATGCA_site782] | 9.42
75 | AAAATAAAAAAAATGTAAAAGGTTAAAGTGAAATAT [CACACA_negctrl_site350] | 9.68
76 | ATATAAATGATATGTACACACATTTATATATATAAA [CACACA_site3475] | 9.41
77 | TGATATTATCTCTTCACACACTCACATACAGACAAA [CACACA_site1246] | 9.37
78 | TAAAAATTAAAATGTTGTACAATGATAAAATATTAT [XGTACX_site7874] | 9.31
79 | TATTTGATAAAAAAAAGTACTAGAATTTCGCTTTTG [XGTACX_site7754] | 9.07
80 | ATTTATTTATATACAAGTACATAAAAAATTAACTTA [XGTACX_site6170] | 8.88
81 | AAATTATAAAATAACTGTACCAATCCTTTTTTTTTA [XGTACX_site2229] | 9.01
82 | TAAATTGAAATATATTGTACATTATCAACTAAGGGA [XGTACX_site1635] | 9.18
83 | CTCAACATATACGTAACACACATATAAATATAAATA [CACACA_site7749] | 9.51
84 | TGTAGTCTGGAGAAAAGTACATAGTATCTGGTAACA [XGTACX_site4940] | 9.2
85 | TTTTAATTTTAAAAATGTACTTTTATTATTTTTAAT [XGTACX_site8300] | 9
86 | AAATAGTTAAAAAGGCGTACACATAAATAAATAAAT [XGTACX_site2096] | 9.66
87 | TATTATATGTAGTTGAGTACATATAAATACATATAT [XGTACX_site7933] | 9.1
88 | AATCTAATATAATGCACACATAAAAAAAAATCAAAC [CACACA_site3633] | 9.8

— the supplement of paper PMC11417369
